# Data from PubChem BioAssay (Tox21).
# This list was built around the results that the source calls inconclusive (neither active nor inactive); the mix of calls is not that of the screen. Entries that show only a call come without a potency. For some of these results: A potency beside an inconclusive call is a rough fit, not a confirmed value. Some structures have more than one record in an assay (separate samples or runs), and their calls can disagree. Activity calls are given as the source filed them. Unless noted, calls come from the whole dose curve; as a rule, active = well fitted curve in the direction sought with a large enough effect in the repeat runs; inconclusive = weak or mixed curves; inactive = no such curve, though single readings can be large; an effect the other way counts as inactive or inconclusive.
# Key:
# [1] = qHTS RealTime-Glo MT Cell Viability Assay in HepG2 cells - 32 hour (AID 1224877); note: nearly all actives have a fitted effect of over 55% in size; note: potency is the fitted concentration of half-maximal effect
# Procedure, shortened: (§1)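 HepG2 cells (600/well) were dispensed with RealTime-Glo reagents, incubated 5 h at 37 °C, then treated with compounds in DMSO for up to 40 h. Nonlytic NanoLuc luminescence reflecting viable cells was read at each stated time point.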
# [2] = qHTS assay to identify small molecule agonists of the estrogen receptor alpha (ER-alpha) signaling pathway in the presence of an antagonist - cell viability counter screen (AID 1259386);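 note: cells exposed to compounds for 22 h at 37 °C before the viability read; nearly all actives have a fitted effect of over 30% in size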; note: potency is the fitted concentration of half-maximal effect
# Procedure, shortened: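 The test measures whether compounds kill ER-alpha reporter cells (VM7Luc4E2) under antagonist co-treatment (ICI-182,780, 10.0nM). Fluorescence from CellTiter-Fluor is read after a 22hr exposure.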
# [3] = qHTS assay to identify small molecule agonists of the hypoxia (HIF-1) signaling pathway (AID 1224846; active = well fitted activation curve with a large enough effect in the signal ratio in the repeat runs, not every such curve was filed as active; inconclusive = weak or mixed curves; the % refers to the signal ratio); settings: HRE-bla ME-180 cells, beta-lactamase ratio, 17 h; activation: at 76.8 µM (top of the series) unless noted
# Procedure, shortened: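 Reporter induction in HRE-bla ME-180 cells is taken as agonism: cells sit 5 hrs after plating, receive compounds or DMSO only, incubate 17 hrs at 37C under 5% CO2, and are loaded with CCF4-AM for beta-lactamase FRET measurement.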
# [4] = qHTS assay to identify small molecule agonists of the androgen receptor (AR) signaling pathway in the presence of an antagonist - cell viability counter screen (AID 1259379); note: nearly all actives have a fitted effect of over 25% in size; note: potency is the fitted concentration of half-maximal effect;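 for activity change, negative = cytotoxicity: MDA-kb2 human breast cancer cells carrying an MMTV luciferase reporter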
# Procedure, shortened: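 MDA-kb2 viability measured by CellTiter-Fluor fluorescence in the same wells as the luciferase signal; nilutamide 3.0uM final; 15-point compound titration; 16 hr at 37C.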
# [5] = biological target: Androgen receptor (Homo sapiens) (UniProt P10275); test: qHTS assay to identify small molecule agonists of the androgen receptor (AR) signaling pathway (AID 743036; active = well fitted activation curve with a large enough effect in the signal ratio in the repeat runs, with a control signal flat, not every such curve was filed as active; inconclusive = weak or mixed curves, or effect the other way; inactive = no such curve, though single readings can be large or run the other way; the % refers to the signal ratio); settings: HEK293 AR-UAS-bla GripTite, beta-lactamase FRET ratio, 16 h; activation: at 62.4 µM (top of the series) unless noted
# Procedure, shortened: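 Activation was read as beta-lactamase FRET signal from LiveBLAzer B/G substrate, added for 2 h at room temperature. Before that, GeneBLAzer AR-UAS-bla GripTite (HEK293) cells had 16 h compound exposure at 37C.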
# [6] = qHTS RealTime-Glo MT Cell Viability Assay in HepG2 cells - 16 hour (AID 1224885); note: nearly all actives have a fitted effect of over 50% in size; note: potency is the fitted concentration of half-maximal effect
# Procedure, shortened: as §1
# [7] = biological target: Acetylcholinesterase (Homo sapiens) (UniProt P22303); test: Acetylcholinesterase (AChE) small molecule antagonists: fluorescence cell-based qHTS assay (AID 1347398; calls by dose curve; note: potency is the fitted concentration of half-maximal effect; nearly all actives have a fitted effect of over 50% in size); settings: Potency: AChE activity
# Procedure, shortened: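 Cellular AChE activity read as thiocholine from acetylthiocholine hydrolysis, detected by Thiolite Green fluorescence at 490/520 nm after 40 min at room temperature. Compounds were pre-incubated 30 min at 37 C on adherent SH-SY5Y cells.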
# [8] = qHTS assay to identify small molecule antagonists of the glucocorticoid receptor (GR) signaling pathway - cell viability counter screen (AID 720693); settings: GR-bla HeLa viability, CellTiter-Glo luminescence, 18 h, with 5 nM dexamethasone present; viability change, negative = cytotoxic: at 58.5 µM (top of the series) unless noted; note: nearly all actives have a fitted effect of over 55% in size; note: potency is the fitted concentration of half-maximal effect
# [9] = qHTS assay to identify small molecule antagonists of the estrogen receptor beta (ER-beta) signaling pathway - cell viability counter screen (AID 1259382);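 note: HEK293T cells carrying ER-beta-UAS-bla reporter stimulated with estradiol; nearly all actives have a fitted effect of over 55% in size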
# Procedure, shortened: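 Readout: luminescence, CellTiter-Glo, same wells as bla assay. System: ER-beta-UAS-bla GripTite HEK293T, 2% charcoal-stripped FBS. Exposure: compounds plus 1nM 17-beta-estradiol, 16 hr, 37C.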
# [10] = qHTS assay to identify small molecule antagonists of the TGF-beta/Smad signaling pathway (AID 1346924; active = well fitted inhibition curve with a large enough effect in the signal ratio in the repeat runs, not every such curve was filed as active; inconclusive = weak or mixed curves; the % refers to the signal ratio); settings: SBE-bla HEK293T, TGF-beta/Smad reporter, beta-lactamase ratio; activity, negative = inhibition: at 76.8 µM (top of the series) unless noted
# Procedure, shortened: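 Read-out was FRET-substrate fluorescence (405 nm excitation; 460 and 530 nm emission) after 2 h at room temperature. Before that, cells carrying a Smad-binding-element beta-lactamase reporter in HEK 293T had been stimulated 5 h at 37 C with TGF-beta1 (0.25 ng/mL addition solution) in the presence of test compound.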
# [11] = biological target: Vitamin D3 receptor (Homo sapiens) (UniProt P11473); test: qHTS assay to identify small molecule agonists of the vitamin D receptor (VDR) signaling pathway (AID 743222; calls by dose curve; note: potency is the fitted concentration of half-maximal effect); settings: HEK293T VDR-UAS-bla, beta-lactamase FRET ratio, 16 h; activation: at 63.5 µM (top of the series) unless noted
# Procedure, shortened: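 Using LiveBLAzer B/G FRET detection, agonism was scored in VDR-bla cells exposed overnight (16 h, 37C) to DMSO-dissolved compounds; substrate incubation was 2 h at room temperature.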
# [12] = A CellTox Green Cytotoxicity Assay to monitor cytotoxicity in HEK293 cells - 16 hour (AID 1224888); note: nearly all actives have a fitted effect of over 35% in size; note: potency is the fitted concentration of half-maximal effect
# Procedure, shortened: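 Tox21 screen in HEK293: membrane-impermeant cyanine dye fluoresces on binding dead-cell DNA; compound pinned 5 h post-seeding, plates held at 37 C, signal read repeatedly through 40 h.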
# [13] = qHTS assay for small molecules that induce genotoxicity in human embryonic kidney cells expressing luciferase-tagged ATAD5 - cell viability (AID 651634; calls by dose curve; note: nearly all actives have a fitted effect of over 25% in size; note: potency is the fitted concentration of half-maximal effect)
# Procedure, shortened: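 15.5 hr compound or vehicle exposure of HEK293T cells expressing luciferase-tagged ATAD5 at 37C; live-cell protease activity is read by fluorescence after 30 min of CellTiter-Fluor.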
# [14] = A CellTox Green Cytotoxicity Assay to monitor cytotoxicity in HepG2 cells - 8 hour (AID 1224890); note: nearly all actives have a fitted effect of over 45% in size
# Procedure, shortened: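 Measurements at 0, 8, 16, 24, 32 and 40 h of treatment captured CellTox Green fluorescence in HepG2 cells that had been co-plated with reagent and preincubated 5 h at 37 C/5% CO2.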
# [15] = qHTS assay to identify aromatase inhibitors - cell viability counter screen (AID 743084); settings: MCF-7 aro ERE viability, CellTiter-Fluor, 24 h; activity change, negative = cytotoxicity: at 70.3 µM (top of the series);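 note: cells stimulated with testosterone during compound exposure; nearly all actives have a fitted effect of over 55% in size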; note: potency is the fitted concentration of half-maximal effect
# [16] = qHTS assay to identify small molecule antagonists of the constitutive androstane receptor (CAR) signaling pathway - cell viability counter screen (AID 1224837); note: nearly all actives have a fitted effect of over 45% in size; note: potency is the fitted concentration of half-maximal effect
# Procedure, shortened: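 To flag cytotoxic false antagonists, HepG2 hCAR/CYP2B6-2.2kb cells were treated 23 hr with 15-concentration compound series and 50 nM CITCO at 37 C/5% CO2; CellTiter-Fluor fluorescence was the measured end point.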
# [17] = biological target: Luciferin 4-monooxygenase (Photinus pyralis) (UniProt P08659); test: qHTS assay to identify small molecule inhibitors of firefly luciferase (AID 1224835); note: nearly all actives have a fitted effect of over 25% in size
# Procedure, shortened: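 Inhibition of purified Photinus luciferase is measured by luminescence. Substrate levels (D-luciferin, ATP) sit at their KM values. Each compound is tested in a concentration series.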
# [18] = qHTS assay to identify small molecule antagonists of the estrogen related receptor (ERR) signaling pathway from Tox21 library - cell viability counter screen (AID 1224834); note: potency is the fitted concentration of half-maximal effect; nearly all actives have a fitted effect of over 30% in size
# Procedure, shortened: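 Seeded ERR cells were rested 6 h at 37 C/5% CO2 before compounds, positive and negative controls or DMSO were added. Incubation continued for 17.5 h, and viability was then quantified by CellTiter-Fluor fluorescence.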
# [19] = qHTS assay to identify small molecule antagonists of the estrogen related receptor signaling pathway with the pleiotropic PPARgamma coactivator (PGC) from Tox21 10K library - cell viability counter screen (AID 1224840; active = well fitted cell-killing curve with a large enough effect in the repeat runs, not every such curve was filed as active; inconclusive = weak or mixed curves, or effect the other way; inactive = no such curve, though single readings can be large or run the other way; note: nearly all actives have a fitted effect of over 40% in size)
# Procedure, shortened: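 Seeded PGC/ERR cells (2,000/well, 6 h, 37 C/5% CO2) get compound by pin tool; 17.5 h incubation at 37 C; CellTiter-Fluor added, 30 min, fluorescence measured.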
# Tags give direction and shape of the fitted curve or compound fluorescence and quenching.
# Sequence of UniProt P11473 (P11473 whole entry, looked up): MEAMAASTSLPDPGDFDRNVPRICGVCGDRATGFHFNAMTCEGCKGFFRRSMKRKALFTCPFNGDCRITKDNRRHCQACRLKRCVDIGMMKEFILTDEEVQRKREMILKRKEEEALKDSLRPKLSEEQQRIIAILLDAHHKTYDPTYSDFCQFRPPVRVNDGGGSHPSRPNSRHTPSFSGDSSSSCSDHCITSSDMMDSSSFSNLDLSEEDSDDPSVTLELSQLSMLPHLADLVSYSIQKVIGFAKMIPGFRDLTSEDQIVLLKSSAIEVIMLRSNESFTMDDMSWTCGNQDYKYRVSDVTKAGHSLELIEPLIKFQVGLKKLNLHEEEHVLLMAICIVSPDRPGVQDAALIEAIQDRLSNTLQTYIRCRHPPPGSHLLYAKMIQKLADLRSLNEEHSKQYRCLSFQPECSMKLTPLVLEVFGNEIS
# Sequence of UniProt P10275 (P10275 whole entry, looked up): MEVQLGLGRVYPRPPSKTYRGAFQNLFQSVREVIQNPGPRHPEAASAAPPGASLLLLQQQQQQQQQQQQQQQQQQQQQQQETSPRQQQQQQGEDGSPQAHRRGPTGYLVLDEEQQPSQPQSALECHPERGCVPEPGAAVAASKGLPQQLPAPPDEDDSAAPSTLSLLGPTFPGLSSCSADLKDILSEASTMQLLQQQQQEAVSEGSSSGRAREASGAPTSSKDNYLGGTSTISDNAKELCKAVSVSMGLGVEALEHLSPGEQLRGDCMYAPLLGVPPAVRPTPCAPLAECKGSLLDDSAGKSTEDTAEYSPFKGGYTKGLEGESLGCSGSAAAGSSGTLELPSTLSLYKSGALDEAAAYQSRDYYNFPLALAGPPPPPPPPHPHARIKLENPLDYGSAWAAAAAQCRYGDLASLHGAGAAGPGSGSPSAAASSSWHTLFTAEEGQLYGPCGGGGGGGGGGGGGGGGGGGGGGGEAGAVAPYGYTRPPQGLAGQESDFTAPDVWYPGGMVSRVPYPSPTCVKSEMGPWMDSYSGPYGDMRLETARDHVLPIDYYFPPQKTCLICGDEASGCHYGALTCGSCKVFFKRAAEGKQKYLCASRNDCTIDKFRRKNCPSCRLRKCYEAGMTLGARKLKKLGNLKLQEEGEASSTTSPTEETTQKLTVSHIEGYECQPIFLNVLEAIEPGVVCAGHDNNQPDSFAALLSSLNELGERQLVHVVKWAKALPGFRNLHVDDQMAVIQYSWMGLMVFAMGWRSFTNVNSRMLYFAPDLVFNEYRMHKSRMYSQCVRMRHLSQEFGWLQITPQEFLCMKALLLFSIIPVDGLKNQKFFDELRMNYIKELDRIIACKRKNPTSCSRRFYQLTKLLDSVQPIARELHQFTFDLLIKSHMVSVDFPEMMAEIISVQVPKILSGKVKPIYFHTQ
# Sequence of UniProt P08659 (P08659 whole entry, looked up): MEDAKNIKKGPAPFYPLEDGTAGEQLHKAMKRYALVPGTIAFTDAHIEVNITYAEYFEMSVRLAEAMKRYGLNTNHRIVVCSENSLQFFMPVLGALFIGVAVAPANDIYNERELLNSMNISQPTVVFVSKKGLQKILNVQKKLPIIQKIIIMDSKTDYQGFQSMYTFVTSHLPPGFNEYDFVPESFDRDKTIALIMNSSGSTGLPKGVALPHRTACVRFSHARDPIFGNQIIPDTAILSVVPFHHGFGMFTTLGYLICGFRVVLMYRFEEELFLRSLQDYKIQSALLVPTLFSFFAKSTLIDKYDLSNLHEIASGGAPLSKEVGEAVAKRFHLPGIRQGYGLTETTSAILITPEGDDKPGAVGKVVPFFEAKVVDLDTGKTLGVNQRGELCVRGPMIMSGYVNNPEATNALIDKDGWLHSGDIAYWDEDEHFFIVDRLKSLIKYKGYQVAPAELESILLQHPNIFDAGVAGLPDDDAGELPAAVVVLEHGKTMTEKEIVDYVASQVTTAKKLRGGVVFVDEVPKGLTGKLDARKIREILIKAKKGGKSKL
# Sequence of UniProt P22303 (P22303 whole entry, looked up): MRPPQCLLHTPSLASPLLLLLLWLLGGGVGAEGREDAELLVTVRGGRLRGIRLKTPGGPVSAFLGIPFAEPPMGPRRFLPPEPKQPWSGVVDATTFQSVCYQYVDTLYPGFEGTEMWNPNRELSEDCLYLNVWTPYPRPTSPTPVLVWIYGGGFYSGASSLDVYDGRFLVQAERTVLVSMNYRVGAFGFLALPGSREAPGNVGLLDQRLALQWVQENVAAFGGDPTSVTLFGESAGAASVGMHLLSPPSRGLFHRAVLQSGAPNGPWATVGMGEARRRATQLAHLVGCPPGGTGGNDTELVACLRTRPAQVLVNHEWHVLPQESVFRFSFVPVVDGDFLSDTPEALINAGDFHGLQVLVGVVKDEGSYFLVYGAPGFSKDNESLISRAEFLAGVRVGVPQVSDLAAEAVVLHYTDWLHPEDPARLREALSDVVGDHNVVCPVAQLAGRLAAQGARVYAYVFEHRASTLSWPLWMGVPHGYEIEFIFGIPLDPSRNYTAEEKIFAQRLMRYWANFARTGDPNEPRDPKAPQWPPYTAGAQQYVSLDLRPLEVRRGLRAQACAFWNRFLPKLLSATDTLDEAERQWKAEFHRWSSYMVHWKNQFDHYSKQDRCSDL
compound,measurement,setting,value
COc1nc(NC(C)C)nc(NC(C)C)n1,Potency,[1],inactive
CCOP(=O)(OCC)OCC,Potency,[2],inactive
COc1ccc(CO)cc1,Potency,[3],inactive
same,Potency,[1],inactive
CCC(=O)c1ccc(Cl)cc1,Potency,[4],inactive
CCCCOP(=O)(O)OCCCC,Potency,[5],inactive
O=P(O)(Oc1ccccc1)Oc1ccccc1,Potency,[6],inactive
CCCC[n+]1ccccc1C,Potency,[1],"inconclusive: 55.2 µM [cytotoxic, single point]"
CC(C)Nc1nc(Cl)nc(NC(C)C)n1,Potency,[3],inactive
same,Potency,[7],active: 31.7 µM
Cl,Potency,[8],"inconclusive: 9.77 µM [rising, full curve, poor fit]"
same,Potency,[9],inactive
O=C(NC(=O)c1c(F)cccc1F)Nc1cc(Cl)c(F)c(Cl)c1F,"activity, negative = inhibition",[10],inconclusive: -1.97%
Oc1ccc(Cl)cc1Cl,Potency,[11],"inconclusive: 61.6 µM [fluorescent, partial curve, poor fit]"
same,"activity, negative = inhibition",[10],inconclusive: -1.63%
CCCN,Potency,[6],inactive
ClC1=C(Cl)[C@]2(Cl)[C@@H]3[C@@H](Cl)[C@H](Cl)C[C@@H]3[C@@]1(Cl)C2(Cl)Cl,Potency,[12],"inconclusive: 21.9 µM [activator, single point]"
COC(=O)c1ccccc1S(=O)(=O)NC(=O)Nc1nc(C)cc(C)n1,Potency,[13],"inconclusive: 27.3 µM [falling, single point]"
CCOP(=S)(OCC)SCSc1cc(Cl)ccc1Cl,Potency,[3],inactive
CCOP(=O)(OCC)OP(=O)(OCC)OCC,Potency,[5],inactive
same,Potency,[1],inactive
same,Potency,[14],inactive
CCCC[N+](CCCC)(CCCC)CCCC,Potency,[8],inactive
same,Potency,[4],"inconclusive: 48.5 µM [cytotoxic, partial curve]"
same,"activity, negative = inhibition",[10],inconclusive: -15.5%
CC(=O)CC(c1ccc(Cl)cc1)c1c(O)c2ccccc2oc1=O (centres undefined),Potency,[1],inactive
O=C(O)CCl,Potency,[12],inactive
C=CCBr,Potency,[8],"inconclusive: 58.1 µM [rising, single point]"
same,Potency,[3],inactive
CCNc1nc(NCC)nc(SC)n1,Potency,[12],inactive
same,Potency,[9],inactive
CNC(=O)/C=C(\C)OP(=O)(OC)OC,Potency,[15],inactive
same,Potency,[3],inactive
CC(C)CC#N,Potency,[5],inactive
CN(C)c1nc(=O)n(C2CCCCC2)c(=O)n1C,Potency,[12],inactive
same,Potency,[14],inactive
CCC1(c2ccccc2)C(=O)NC(=O)NC1=O,Potency,[12],inactive
same,Potency,[9],inactive
N#CCCCCC#N,Potency,[12],inactive
C[N+](C)(C)CC(=O)[O-],Potency,[8],"inconclusive: 17.4 µM [rising, partial curve, poor fit]"
Cc1ccc([N+](=O)[O-])cc1C,Potency,[8],"inconclusive: 54 µM [cytotoxic, single point]"
O=C(Cl)C(Cl)Cl,Potency,[15],inactive
same,Potency,[11],inactive
CC12CC1(C)C(=O)N(c1cc(Cl)cc(Cl)c1)C2=O (centres undefined),Potency,[16],inactive
same,Potency,[6],inactive
O=C1CC[C@@]2(O)[C@H]3Cc4ccc(O)c5c4[C@@]2(CCN3CC2CC2)[C@H]1O5,Potency,[17],inactive
CCN[C@@H](C)Cc1cccc(C(F)(F)F)c1,Potency,[4],inactive
CC(C)(C)NCC(O)c1cc(Cl)c(N)c(Cl)c1 (centres undefined),Potency,[15],"inconclusive: 29.8 µM [cytotoxic, partial curve]"
same,Potency,[18],"inconclusive: 11.9 µM [cytotoxic, full curve]"
same,Potency,[16],"inconclusive: 11.9 µM [cytotoxic, partial curve]"
same,Potency,[2],active: 21.1 µM
CCC[N+](CCC)(CCC)CCC,Potency,[17],inactive
same,Potency,[19],inactive
CCC#N,Potency,[13],inactive
same,activation,[11],inconclusive: 0.9% [at 81.1 µM]
same,Potency,[6],inactive
CON(C)C(=O)Nc1ccc(Br)cc1,Potency,[18],"inconclusive: 68.6 µM [cytotoxic, partial curve]"
CCOC(=O)C(Cl)Cc1cc(-n2nc(C)n(C(F)F)c2=O)c(F)cc1Cl (centres undefined),Potency,[6],"inconclusive: 43.6 µM [cytotoxic, partial curve]"
same,Potency,[7],"inconclusive: 35.6 µM [inhibitor, partial curve]"
C=CCOC(N)=O,Potency,[16],inactive
CCCSC(=O)N(CCC)CCC,Potency,[11],inactive
same,Potency,[2],inactive
Cc1ccccc1CO[C@@H]1C[C@@]2(C(C)C)CC[C@]1(C)O2,Potency,[5],inactive
same,Potency,[15],inactive
